This note sets out measurements from the antibiotic and cytotoxicity screens of Wong et al. (2023).

SMILES strings stand for the structures. The list shows a part of the results.

The test system of the assay is HepG2. Nature of the assay: cytotoxicity call (relative viability < 0.9). Particulars: 10 µM.
As for `O=c1c(O)c(-c2cc(O)c(O)c(O)c2)oc2cc(O)cc(O)c12`, the cytotoxicity call is “inactive”.

As for `C[C@]1(O)CC[C@@H]2C(C(=O)O)=CO[C@@H](O[C@@H]3O[C@H](COC(=O)/C=C/c4ccc(O)c(O)c4)[C@@H](O)[C@H](O)[C@H]3O)[C@@H]21`, the cytotoxicity call was “inactive”.

Take `C[C@@H]1CCCCO[C@@H](CN(C)S(=O)(=O)c2cn(C)cn2)[C@H](C)CN([C@H](C)CO)C(=O)c2cc(NS(C)(=O)=O)ccc2O1`: the cytotoxicity call was “inactive”.

Take `C[C@@H]1CN([C@H](C)CO)C(=O)Cc2cc(NC(=O)Nc3cccc4ccccc34)ccc2O[C@H]1CN(C)S(=O)(=O)c1ccc(F)cc1`: the cytotoxicity call was “inactive”.

For the molecule `CC(C)C#Cc1cnc2c(c1)C(=O)N([C@@H](C)CO)C[C@H](C)[C@@H](CN(C)C(=O)c1ccc3c(c1)OCO3)O2`, the cytotoxicity call was “inactive”.

Take `C[C@H]1CN([C@@H](C)CO)C(=O)c2cc(C#CCN(C)C)cnc2O[C@H]1CN(C)C(=O)c1ccc2c(c1)OCO2`: the cytotoxicity call is “inactive”.

As for `NC[C@@H]1CC(=O)N(c2ccccc2)C1`, the cytotoxicity call is “active”.

For `COc1ccc(S(=O)(=O)Nc2ccc3c(c2)C(=O)N([C@H](C)CO)C[C@@H](C)[C@H](CN(C)S(=O)(=O)c2ccccc2)O3)cc1`, the cytotoxicity call was “inactive”.

Turning to `C[C@@H]1CCCCO[C@H](CN(C)Cc2ccc3c(c2)OCO3)[C@@H](C)CN([C@@H](C)CO)C(=O)c2cc(NS(=O)(=O)c3ccccc3)ccc2O1`, the cytotoxicity call is “inactive”.

As to `C[C@@H]1CCCn2cc(nn2)COCCNC1=O`, the cytotoxicity call was “inactive”.

For the molecule `COc1ccc(NC(=O)Nc2ccc3c(c2)C(=O)N([C@H](C)CO)C[C@H](C)[C@@H](CN(C)C(=O)Nc2c(C)noc2C)OCCCC[C@@H](C)O3)cc1`, the cytotoxicity call was “inactive”.

Regarding `C[C@H](CO)N1C[C@H](C)[C@H](CN(C)C(=O)c2ccncc2)OCCCC[C@H](C)Oc2ccc(NC(=O)C3CCCCC3)cc2C1=O`, the cytotoxicity call is “inactive”.

`Cc1noc(C)c1S(=O)(=O)N(C)C[C@H]1Oc2ccc(NS(=O)(=O)c3ccccc3)cc2C(=O)N([C@H](C)CO)C[C@H]1C`: the cytotoxicity call is “inactive”.

For `O=C(C[C@@H]1C[C@@H]2c3cc(NS(=O)(=O)c4ccc(F)cc4)ccc3O[C@@H]2[C@@H](CO)O1)NC1CCCC1`, the cytotoxicity call was “inactive”.

Turning to `COc1ccc(S(=O)(=O)Nc2ccc3c(c2)C(=O)N([C@H](C)CO)C[C@@H](C)[C@H](CN(C)S(C)(=O)=O)OCCCC[C@@H](C)O3)cc1`, the cytotoxicity call was “inactive”.

`C[C@H](CO)N1C[C@H](C)[C@@H](CN(C)S(=O)(=O)c2cn(C)cn2)Oc2c(NC(=O)CCCN(C)C)cccc2C1=O`: the cytotoxicity call is “inactive”.

As to `CC(C)C#Cc1cnc2c(c1)C(=O)N([C@H](C)CO)C[C@@H](C)[C@@H](CN(C)C(=O)c1ccc3c(c1)OCO3)O2`, the cytotoxicity call was “inactive”.

As for `C[C@@H]1CN([C@H](C)CO)C(=O)Cc2cc(NC(=O)Cc3cn(C)c4ccccc34)ccc2O[C@@H]1CN(C)Cc1ccc(C(F)(F)F)cc1`, the cytotoxicity call was “active”.

As for `COc1cc(N2CCC3(CC2)CNC(=O)CO3)ncn1`, the cytotoxicity call was “inactive”.

With `COc1ccc(NC(=O)N(C)C[C@H]2OCCCC[C@H](C)Oc3ccc(NC(=O)Nc4cccc5ccccc45)cc3C(=O)N([C@H](C)CO)C[C@H]2C)cc1`, the cytotoxicity call was “inactive”.

Turning to `C[C@H]1CN([C@@H](C)CO)C(=O)c2cc(NC(=O)Nc3cccc4ccccc34)ccc2O[C@H]1CN(C)C(=O)Nc1ccc(C(F)(F)F)cc1`, the cytotoxicity call was “inactive”.

Regarding `CCCNC(=O)N1C[C@@H](O)COC[C@@H]2O[C@H](CC(=O)NCc3ccncn3)CC[C@H]21`, the cytotoxicity call was “inactive”.

As for `C[C@@H]1CN([C@H](C)CO)C(=O)c2cc(NS(=O)(=O)c3cn(C)cn3)ccc2O[C@@H]1CN(C)S(=O)(=O)c1cccs1`, the cytotoxicity call is “inactive”.

`Nc1nnc([C@H]2CCCO2)s1`: the cytotoxicity call is “inactive”.

For the molecule `COCC(=O)Nc1ccc2c(c1)C(=O)N(C)C[C@@H](OC)[C@@H](C)CN(Cc1cccc(F)c1)[C@@H](C)CO2`, the cytotoxicity call was “inactive”.

For the molecule `Cc1ccc(S(=O)(=O)N(C)C[C@H]2OCCCC[C@@H](C)Oc3ccc(NC(=O)Nc4ccccc4)cc3C(=O)N([C@@H](C)CO)C[C@H]2C)cc1`, the cytotoxicity call is “inactive”.

Turning to `O=C(C[C@H]1CC[C@H]2[C@@H](COC[C@@H](O)CN2S(=O)(=O)c2cccc(F)c2)O1)NCCCN1CCOCC1`, the cytotoxicity call was “inactive”.

As for `COc1ccc(-c2cnc3c(c2)C(=O)N([C@@H](C)CO)C[C@@H](C)[C@@H](CN(C)C(=O)Cc2ccncc2)O3)cc1`, the cytotoxicity call is “inactive”.

For the molecule `NCC[C@@H]1CC[C@H](NC(=O)Nc2ccc(F)cc2)[C@H](CO)O1`, the cytotoxicity call was “inactive”.

Take `CCOC(=O)[C@H]1C/C=C/C[C@H](C(=O)OCC)C(=O)O[C@H]2[C@@H](OC)O[C@H](CO)[C@@H](OC(=O)Nc3ccccc3)[C@@H]2OC1=O`: the cytotoxicity call was “inactive”.

As to `C[C@@H]1CCCCO[C@@H](CN(C)C(=O)Nc2ccc(C(F)(F)F)cc2)[C@H](C)CN([C@@H](C)CO)C(=O)c2cc(NC(=O)Nc3cccc4ccccc34)ccc2O1`, the cytotoxicity call was “inactive”.

In the case of `C[C@H]1CCCCO[C@H](CN(C)Cc2ccccc2)[C@@H](C)CN([C@@H](C)CO)C(=O)c2cc(NC(=O)Nc3ccc(C(F)(F)F)cc3)ccc2O1`, the cytotoxicity call was “active”.

In the case of `C[C@H]1CCCCO[C@H](CN(C)C(=O)CCC(F)(F)F)[C@@H](C)CN([C@@H](C)CO)C(=O)c2cc(NC(=O)C3CCCCC3)ccc2O1`, the cytotoxicity call is “inactive”.

`COc1ccccc1CN1C(=O)c2ccccc2[C@](Cc2ccccc2I)(C(=O)NCCCN(C)C)[C@@H]1c1ccc(CO)cc1`: the cytotoxicity call was “active”.

As to `O=C(C[C@H]1C[C@H]2c3cc(NS(=O)(=O)c4ccc(F)cc4)ccc3O[C@H]2[C@@H](CO)O1)NCC(F)(F)F`, the cytotoxicity call was “inactive”.

Turning to `CN1CCN2c3ncccc3Cc3ccccc3C2C1` (stereo not given), the cytotoxicity call was “inactive”.

Consider `C[C@@H]1CN([C@H](C)CO)C(=O)Cc2cc(NS(=O)(=O)c3cccs3)ccc2O[C@@H]1CN(C)Cc1ccncc1`, for which the cytotoxicity call is “inactive”.

For `C[C@@H]1CCCCO[C@@H](CN(C)Cc2ccccc2)[C@@H](C)CN([C@@H](C)CO)C(=O)c2cc(NS(=O)(=O)c3ccc(Cl)cc3)ccc2O1`, the cytotoxicity call was “inactive”.

Consider `O=C(C[C@H]1C=C[C@@H](NC(=O)c2ccc(F)cc2)[C@@H](CO)O1)NCc1ccncn1`, for which the cytotoxicity call is “inactive”.

As for `C[C@@H]1CN([C@@H](C)CO)C(=O)c2cc(C#CC3(O)CCCC3)cnc2O[C@H]1CN(C)S(=O)(=O)c1cccc(F)c1`, the cytotoxicity call was “inactive”.
